Measured values: PubChem BioAssay AID1030 (National Center for Advancing Translational Sciences (NCATS), 2008)
The whole screen tested about 220,000 compounds, of which about 16,000 (7.3%) were called active. The inconclusive results got no clear call from the source; some entries with a clear call stand among them for comparison. The call rests on the fitted dose curve; in most records, active means well fitted inhibition curve with a large enough effect (not every such curve was filed as active); inconclusive means small, poorly fitted or top-dose-only effect, or another doubt; inactive means no such curve, though single readings can be large or run the other way. No potency is given beside an inconclusive call; the fits are too rough.

Target: Aldehyde dehydrogenase 1A1 (Homo sapiens) (UniProt P00352)
Test: qHTS Assay for Inhibitors of Aldehyde Dehydrogenase 1 (ALDH1A1);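 on activity, negative = inhibition: plate controls were no enzyme wells and a reference inhibitor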
Details: Purified ALDH1A1, NADH fluorescence, propionaldehyde substrate; series mostly up to 75.3 µM
Potency means the concentration at half of the fitted maximal effect; tags describe the fitted curve by direction and shape.

UniProt P00352, sequence (P00352 whole entry, looked up): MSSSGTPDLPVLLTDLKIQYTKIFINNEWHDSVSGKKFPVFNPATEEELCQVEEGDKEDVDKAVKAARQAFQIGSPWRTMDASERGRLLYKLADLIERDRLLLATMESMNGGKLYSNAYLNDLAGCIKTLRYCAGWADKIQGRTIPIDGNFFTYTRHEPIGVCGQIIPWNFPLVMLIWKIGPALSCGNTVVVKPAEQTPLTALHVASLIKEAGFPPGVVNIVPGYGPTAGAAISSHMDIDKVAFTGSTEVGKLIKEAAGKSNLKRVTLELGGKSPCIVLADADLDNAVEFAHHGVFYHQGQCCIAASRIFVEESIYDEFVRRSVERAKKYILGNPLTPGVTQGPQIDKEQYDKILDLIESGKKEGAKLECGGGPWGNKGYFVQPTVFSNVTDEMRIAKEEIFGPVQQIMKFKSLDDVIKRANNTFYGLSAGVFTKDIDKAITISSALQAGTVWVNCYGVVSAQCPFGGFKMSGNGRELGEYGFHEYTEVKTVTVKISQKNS

Row | SMILES | Potency | activity, negative = inhibition
1 | COc1ccc(CN2C(=O)c3cccnc3C2Nc2cc(Cl)c(OC)cc2OC)cc1 (centres undefined) | inconclusive [inhibitor, single point] | –
2 | O=C(Nc1ccc(Nc2ccccc2)cc1)C(Cl)(Cl)Cl | inconclusive [inhibitor, single point] | –
3 | COC(=O)c1nc2cc3c(cc2c(C)c1C(=O)OC)OCO3 | inconclusive [inhibitor, partial curve] | –
4 | CN(C)S(=O)(=O)c1cccc2c1C(=O)c1ccccc1C2=O | inconclusive [inhibitor, single point] | –
5 | CC(C)OC(=O)C(C#N)c1nc2ccccc2nc1N1CCCC1 (centres undefined) | inconclusive [inhibitor, single point] | –
6 | O=C(/C(Br)=C/Nc1cc(Cl)ccc1Cl)C(F)(F)F | active: 15.8 µM | –
7 | COc1cccc2[nH]c(C(=O)NN)c(N)c12 | active: 28.2 µM | –
8 | CCCN(CCC)S(=O)(=O)c1ccc(C(=O)Nc2ccc(OCC(=O)N3CCOCC3)cc2)cc1 | inconclusive [inhibitor, single point] | –
9 | CCOC(=O)c1ccc(NC(=S)N(CCCN2CCCC(C)C2)Cc2ccco2)cc1 (centres undefined) | inactive | –
10 | COC(=O)c1ccccc1NC1c2ccccc2C(=O)N1c1cccnc1 (centres undefined) | inconclusive [inhibitor, partial curve] | –
11 | COc1ccc(-n2c(=O)c(-c3cc(F)cc(F)c3)nc3cnc(N(C)C)nc32)cc1 | inconclusive [inhibitor, single point] | –
12 | COc1ccc(C(=O)N2CCCCC2)cc1S(=O)(=O)Nc1ccccc1 | inconclusive [inhibitor, partial curve] | –
13 | CN(C)/C=C/C(=O)c1cnc(-c2ccc(Cl)cc2)s1 | inconclusive [inhibitor, partial curve] | –
14 | COc1cc2[nH]c(=S)n(Cc3ccccc3)c(=O)c2cc1OC | active: 4.47 µM | –
15 | Nc1cccc(NC(=O)c2cccs2)c1 | inactive | –
16 | Cc1[nH]c(=S)[nH]c(=O)c1Cc1ccccc1 | inactive | –
17 | Nc1ccc(-c2nc3ncccc3o2)c(Cl)c1 | inconclusive [inhibitor, partial curve] | –
18 | CCn1nc(C)c(Br)c1-c1nc(CS(=O)(=O)c2ccc(F)cc2)no1 | inconclusive [inhibitor, single point] | –
19 | Oc1c(Cl)cc(Cl)c2c1NCCC2 | active: 5.01 µM | –
20 | Nc1nc(SCC(=O)NCCC(c2ccccc2)c2ccccc2)n[nH]1 | inactive | –
21 | CCc1c(O)nc(SC2CC(=O)N(c3ccccc3)C2=O)[nH]c1=O (centres undefined) | inconclusive [inhibitor, single point] | –
22 | C/C=C/C(=O)OCC(=O)Nc1ccc(C)c(S(=O)(=O)N(C)C)c1 | inconclusive [inhibitor, single point] | –
23 | O=C(CNS(=O)(=O)c1ccc(Br)s1)Nc1ccc2c(c1)OCCO2 | inconclusive [inhibitor, single point] | –
24 | CCCN(Cc1nnc(-c2ccccc2Cl)o1)C(=O)c1cc([N+](=O)[O-])cc([N+](=O)[O-])c1 | inconclusive [inhibitor, single point] | –
25 | CC(=O)N1CCN(CC(=O)Nc2ccccc2Sc2ccccc2)CC1 | inconclusive [inhibitor, single point] | –

Row | SMILES | Potency | activity, negative = inhibition
26 | Cc1cc(C2(c3cc(C)c(O)c(C(=O)O)c3)OS(=O)(=O)c3ccccc32)cc(C(=O)O)c1O | – | inactive: 13.7% [at 13.5 µM]
27 | O=C(c1ccco1)N1CCN(c2nc(C(F)(F)F)nc3c2nnn3Cc2ccccc2)CC1 | active: 14.1 µM | –
28 | CCCC/C(O)=C1\C(=O)CC(C)(C)CC1=Nc1ccc(OC)cc1 | inconclusive [inhibitor, partial curve] | –
29 | CC1(C(=O)O)CC(C)(C(=O)O)CC(C)(C(=O)O)C1 (centres undefined) | inactive | –
30 | COc1ccc(S(=O)(=O)N2CCSC2c2ccc(N)cc2)cc1 (centres undefined) | inconclusive [inhibitor, partial curve] | –
31 | Cc1ccc(Cn2nc(C)c(NC(=O)CCCn3nc([N+](=O)[O-])c(Cl)c3C)c2C)cc1 | inconclusive [inhibitor, single point] | –
32 | COc1ccc(OC)c(-n2nnnc2SCC(=O)O)c1 | inactive | –
33 | CC(=O)c1ccc(Sc2ccc(C(C)=O)cc2)cc1 | inactive | –
34 | COc1cc(/C=N/NC(=O)CCC(=O)NC2CCCCC2)ccc1C | inactive | –
35 | C=CCN1C=C2C(=O)C(C)(OC(=O)c3cccs3)C(=O)C=C2C=C1CCCC(=O)OC (centres undefined) | inconclusive [inhibitor, partial curve] | –
36 | NC1=N[C@H](c2ccc(Cl)cc2)N(c2ccc(S(=O)(=O)Nc3ncccn3)cc2)C(N)=N1 | – | inactive: -4.11% [at 13.5 µM]
37 | Cn1c(/C=N/NC(=O)c2ccccc2Br)nc2ccccc21 | inconclusive [inhibitor, partial curve] | –
38 | Cn1c(C(=O)O)cc2cc(F)ccc21 | inconclusive [inhibitor, single point] | –
39 | Cc1ccc2c(Cl)c(C(=O)Nc3cc(C)on3)sc2c1 | inactive | –
40 | Cc1[nH]nc2c1C(c1ccsc1C)C(C#N)=C(N)O2 (centres undefined) | inactive | –
41 | COCC(C)NC(=O)c1cccc([N+](=O)[O-])c1 (centres undefined) | inactive | –
42 | Cn1c(-c2ccccc2)cnc1SCC(=O)N1CCCc2ccccc21 | active: 10 µM | –
43 | CC(=O)c1ccc(NC(=S)NC2CCCC(C)C2C)cc1 (centres undefined) | inconclusive [inhibitor, single point] | –
44 | Cc1ccc(CSc2ccc3nnc(-c4ccccn4)n3n2)cc1 | inconclusive [inhibitor, single point] | –
45 | CN(C)CCNC(C(=O)Nc1cccc(C(F)(F)F)c1)c1ccccc1 (centres undefined) | inactive | –
46 | COc1cccc(C(=O)CN2CCN(S(=O)(=O)c3ccc(Br)cc3)CC2)c1 | active: 11.2 µM | –
47 | Cc1sc(NC(=O)C2CCCC2)c(C#N)c1C | active: 14.1 µM | –
48 | COc1ccc(N2CCN(C(=O)c3ccc(SC)cc3OC)CC2)cc1 | inactive | –
49 | CCN1CCCC1CNC(=O)c1cc2c(=O)n(C)c3ccccc3c2n1C (centres undefined) | inconclusive [inhibitor, single point] | –
